Reference: PubChem BioAssay (NCATS)
This list was built around the results that the source calls inconclusive (neither active nor inactive); the mix of calls is not that of the screen. A potency beside an inconclusive call is a rough fit, not a confirmed value. Active and inactive are the calls of the source. Calls follow the shape of the dose curve; as a rule, active = well fitted curve in the direction sought with a large enough effect; inconclusive = small, poorly fitted or top-dose-only effect, or another doubt; inactive = no such curve, though single readings can be large; an effect the other way counts as inactive or inconclusive.

biological target: Glucagon-like peptide 1 receptor (Homo sapiens) (UniProt P43220); assay: qHTS of GLP-1 Receptor Agonists: LOPAC Validation (AID 624148); details: GLP-1R agonist cell assay;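 also: luminescence from a luciferase reporter switched on by cAMP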
Procedure, shortened: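 Agonism scored as increased luciferase luminescence driven by cAMP in HEK293 clones carrying GLP-1R. Cells settled 12 hours, received compound for 4-6 hr at 37 deg C, 5% CO2, and were read after 12 min detection reagent at RT.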
Potency is read from the fitted curve at half-maximal effect; tags tell the direction and shape of the fitted curve.

Sequence of UniProt P43220 (P43220 whole entry, looked up): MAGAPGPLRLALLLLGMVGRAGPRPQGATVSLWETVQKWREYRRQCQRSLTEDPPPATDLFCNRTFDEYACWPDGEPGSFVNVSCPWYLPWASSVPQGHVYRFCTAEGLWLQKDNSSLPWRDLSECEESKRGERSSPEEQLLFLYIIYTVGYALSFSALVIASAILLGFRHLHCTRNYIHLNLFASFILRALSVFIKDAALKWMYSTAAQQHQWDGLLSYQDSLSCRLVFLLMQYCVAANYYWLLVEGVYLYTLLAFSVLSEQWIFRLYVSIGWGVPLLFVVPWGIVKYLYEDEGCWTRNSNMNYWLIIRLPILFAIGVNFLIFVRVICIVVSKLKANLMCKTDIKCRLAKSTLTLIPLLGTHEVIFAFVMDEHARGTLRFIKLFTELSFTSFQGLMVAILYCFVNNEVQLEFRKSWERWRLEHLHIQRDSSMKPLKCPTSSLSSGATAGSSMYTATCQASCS

Row | Structure (SMILES) | Potency
1 | COc1cc2c(cc1OC)-c1cc(=Nc3c(C)cc(C)cc3C)n(C)c(=O)n1CC2 | inconclusive: 5.8 µM [activator, partial curve]
2 | COc1ccc(C2CNC(=O)C2)cc1OC1CCCC1 (stereo not given) | active: 0.0461 µM
3 | NC[C@H](O)c1ccc(O)c(O)c1 | inconclusive: 3.66 µM [activator, full curve]

system: not listed separately; assay: HTS Assay for Allosteric Antagonists of the Human D2 Dopamine Receptor: Hit Validation in HTRF (AID 624455); details: Cells stably expressing D1 dopamine receptor, inhibition mode; series mostly up to 46.1 µM; activity, negative = inhibition: at the top concentration;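 also: stable D1 dopamine receptor cell line scored for blocking the D1 response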; as to activity, negative = inhibition: % is scaled to controls: 0 for no effect and ±100 for the full control effect
Procedure, shortened: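 Inhibition of the D1-mediated response was measured by HTRF. Cells used were a line stably expressing the D1 dopamine receptor.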

Row | Structure (SMILES) | activity, negative = inhibition | Potency
4 | CCOC(=O)[C@H](CCc1ccccc1)N[C@@H](C)C(=O)N1[C@H](C(=O)O)C[C@H]2CCCC[C@@H]21 | inactive: 1.71% | –
5 | C[C@@H](N)C1CCC(C(=O)Nc2ccncc2)CC1 (stereo not given in full) | – | inconclusive: 5.17 µM [inhibitor, single point]
6 | CN(Cc1cnc2nc(N)nc(N)c2n1)c1ccc(C(=O)N[C@@H](CCC(=O)O)C(=O)O)cc1 | – | inconclusive: 4.61 µM [inhibitor, partial curve, poor fit]
7 | C[n+]1cc2c3c(ccc2c2ccc4cc5c(cc4c21)OCO5)OCO3 | – | inconclusive: 4.61 µM [inhibitor, single point]
8 | C[C@]12C=CC(=O)C=C1CC[C@H]1[C@@H]3C[C@@H](O)[C@](O)(C(=O)CO)[C@@]3(C)C[C@H](O)[C@@]12F | inactive: 2.21% | –
9 | NC(=O)N1c2ccccc2C=Cc2ccccc21 | inactive: 1.24% | –
10 | NC[C@H](O)c1ccc(O)c(O)c1 | – | active: 0.291 µM
